These results are taken from the RNAGym collection of RNA variant scans (doi:10.1073/pnas.2313332121).

Variants at the background level are over-represented here.

The labels stand for the following.
B1: TPR 5TU (parent)
chain: GGAUCUUCUCGAUCUAACAAAAAAGACAAAUCUGCCACAAAGCUUGAGAGCAUCUUCGGAUGCAGAGGCGGCAGCCUUCGGUGGCGCGAUAGCGCCAACGUUCUCAACUAUGACACGCAAAACGCGUGCUCCGUUGAAUGGAGUUUAUCAUG

The series covers variants of B1. Kind of series: polymerase ribozyme fitness, log enrichment relative to wild type (log ratio); higher = more active; in vitro selection for triplet polymerase activity. In a few lines:
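To select mutant libraries of each subunit of a heterodimeric triplet polymerase ribozyme, built by PCR and transcribed, each was annealed with a biotinylated primer, partner subunit and triplets, then incubated frozen at −7 °C. Extended constructs were gel-excised, captured on streptavidin beads and amplified by RT-PCR, in one round carried out in triplicate. Illumina sequencing of input and output libraries kept genotypes with ≥10 input reads and ≥1 read per output. Fitness is the base-2 logarithm of genotype enrichment relative to wild-type enrichment, from inverse-variance-weighted replicate averages.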
For U7G A19U A23U A28G C32A C54U U56A A113C G126U, the “polymerase ribozyme fitness (log ratio)” value is not above -4.2.

As for U7C C10G C69U U90A U135A A138G U139A, the “polymerase ribozyme fitness (log ratio)” value is not above -4.2.

In the case of U7C U53G G86C A106G A150C, the “polymerase ribozyme fitness (log ratio)” value was not above -4.2.

Regarding U7A C38U C75G C85U C125U, the “polymerase ribozyme fitness (log ratio)” value was not above -4.2.

Turning to U7C U45A A64G C76U G83A C95A G126U U130C, the “polymerase ribozyme fitness (log ratio)” value is not above -4.2.

As to U7C A28C U55A U56A G67C G94U G140C A147U, the “polymerase ribozyme fitness (log ratio)” value was not above -4.2.

Consider U7C C87U G88U U104G, for which the “polymerase ribozyme fitness (log ratio)” value is not above -4.2.

In the case of U7C A37C G67C C87U, the “polymerase ribozyme fitness (log ratio)” value was not above -4.2.

For U7A U15A A30G A41U C72U C79A G84A U90G C96U C118U U146A, the “polymerase ribozyme fitness (log ratio)” value was not above -4.2.

With U7G A20C C51U A52C U56A G86A C123U C131G U148A, the “polymerase ribozyme fitness (log ratio)” value was not above -4.2.

As for U7C G50C C51U C87U G152U, the “polymerase ribozyme fitness (log ratio)” value was not above -4.2.

Turning to U7C C54U C85G A115C, the “polymerase ribozyme fitness (log ratio)” value is not above -4.2.

Turning to U7A U45C G50U G83A A89U G94C A115U G141A, the “polymerase ribozyme fitness (log ratio)” value was not above -4.2.

Take U7G A21U C54A A66C A91C G136A: the “polymerase ribozyme fitness (log ratio)” value is not above -4.2.

Take U7C C10G A26U G34U G84A A142U: the “polymerase ribozyme fitness (log ratio)” value is not above -4.2.

For the variant U7A A22C G50C G81U U82C, the “polymerase ribozyme fitness (log ratio)” value is not above -4.2.

On to U7A A20G G86C G92A A115C G140C A150C, for which the “polymerase ribozyme fitness (log ratio)” value is not above -4.2.

U7A A17U C35A A41G G88C G141U G143C: the “polymerase ribozyme fitness (log ratio)” value is not above -4.2.

As to U7A C35U C57A C69A A113U G152C, the “polymerase ribozyme fitness (log ratio)” value was not above -4.2.

Turning to U7A A29G G67A C69U G80C C103G U104C C105U G136A G140U, the “polymerase ribozyme fitness (log ratio)” value was not above -4.2.

Turning to U7A C10U C35U G71A U78G G84C G92A, the “polymerase ribozyme fitness (log ratio)” value was not above -4.2.

Take U7A C8U C18G A26U C54U A60G C95U: the “polymerase ribozyme fitness (log ratio)” value was not above -4.2.

As to U7C A16C U33G G80U G81A A91G G141C, the “polymerase ribozyme fitness (log ratio)” value is not above -4.2.

For U7A A37U U61G U78G C99G G140A, the “polymerase ribozyme fitness (log ratio)” value is not above -4.2.

Turning to U7C C54G G86C C96U A98G G124C, the “polymerase ribozyme fitness (log ratio)” value is not above -4.2.

Regarding U7G A16G G62A A73U C95U C118U, the “polymerase ribozyme fitness (log ratio)” value is not above -4.2.

As to U7A C14G A29G C35G C36A G74A A91U C96A, the “polymerase ribozyme fitness (log ratio)” value was not above -4.2.

On to U7A A26U C32G A49C G50A G83U, for which the “polymerase ribozyme fitness (log ratio)” value was not above -4.2.

Turning to U7C G88A G92C, the “polymerase ribozyme fitness (log ratio)” value is not above -4.2.

As for U7A A16G C36U A89U G92U A97C, the “polymerase ribozyme fitness (log ratio)” value was not above -4.2.

As for U7C A40U C76U U101G A122G A147U, the “polymerase ribozyme fitness (log ratio)” value was not above -4.2.

On to U7A A24G A30G C54U U55A G94U, for which the “polymerase ribozyme fitness (log ratio)” value is not above -4.2.

Take U7A A21C U53G U56A G58C A60U C75A: the “polymerase ribozyme fitness (log ratio)” value is not above -4.2.

Take U7C U45A G46A C57G A66G C85A: the “polymerase ribozyme fitness (log ratio)” value is not above -4.2.

As for U7A C85G G117U G143U, the “polymerase ribozyme fitness (log ratio)” value is not above -4.2.

Regarding U7A C43U U78A G80C C93U C96A G143U U148A, the “polymerase ribozyme fitness (log ratio)” value is not above -4.2.

On to U7G A22G G74U C85A G126U U144A, for which the “polymerase ribozyme fitness (log ratio)” value was not above -4.2.

Turning to U7C C32G A40C C54G U77C A138G, the “polymerase ribozyme fitness (log ratio)” value is not above -4.2.

Regarding U7C U53G C93G C116G G124U G141A U148G, the “polymerase ribozyme fitness (log ratio)” value is not above -4.2.

With U7G A17C A24U A52G A64G C72G C85U G88U G92U C93G A119U, the “polymerase ribozyme fitness (log ratio)” value was not above -4.2.

With U7A, the “polymerase ribozyme fitness (log ratio)” value was -2.18.

U7G: the “polymerase ribozyme fitness (log ratio)” value is -2.22.

Consider U7A A17U A23U U31G G80C C95U, for which the “polymerase ribozyme fitness (log ratio)” value was not above -4.2.

For U7C U31A G46A G59C C85G C118U, the “polymerase ribozyme fitness (log ratio)” value is not above -4.2.

Regarding U7A U31A C38A G68U A73U G86U C93U, the “polymerase ribozyme fitness (log ratio)” value is not above -4.2.

On to U7C A29U C57U C95G, for which the “polymerase ribozyme fitness (log ratio)” value was not above -4.2.

In the case of U7A C14G U15A A22C C54U G62U C93G C96U A98C, the “polymerase ribozyme fitness (log ratio)” value was not above -4.2.

For U7C G50U C87A U90A A106C, the “polymerase ribozyme fitness (log ratio)” value is not above -4.2.

With U7C A39G C85G C105A A107U, the “polymerase ribozyme fitness (log ratio)” value was not above -4.2.

U7G A16G A23U G50A C85U C93G C114A U144G: the “polymerase ribozyme fitness (log ratio)” value was not above -4.2.

As to U7C A49C C57A G84U G136U, the “polymerase ribozyme fitness (log ratio)” value is not above -4.2.

Take U7A A24G A30G G42U U56C G58A G59C C87G A121U: the “polymerase ribozyme fitness (log ratio)” value is not above -4.2.

Regarding U7G A19G A47G G74C C87A A98U, the “polymerase ribozyme fitness (log ratio)” value is not above -4.2.

Regarding U7G A22G G74U C85A G126U, the “polymerase ribozyme fitness (log ratio)” value was not above -4.2.

On to U7C A49C C57A G88A A89C A107U, for which the “polymerase ribozyme fitness (log ratio)” value was not above -4.2.

Turning to U7C C8G A30U C36A G71A C95G G126A, the “polymerase ribozyme fitness (log ratio)” value was not above -4.2.

With U7A A29C A60U C76G C95U G133A G141A, the “polymerase ribozyme fitness (log ratio)” value is not above -4.2.

On to U7A C14G U44A U45A A47C G86A U130G, for which the “polymerase ribozyme fitness (log ratio)” value was not above -4.2.

Turning to U7A A22C C32U U33C A37U C54U U56A U101A, the “polymerase ribozyme fitness (log ratio)” value was not above -4.2.

Turning to U7A C38U A66G C76U U78A C114A G141C, the “polymerase ribozyme fitness (log ratio)” value was not above -4.2.

Take U7A A24C A47C A52C G58A G67A A98U C99G U102A G136C A138C A147C: the “polymerase ribozyme fitness (log ratio)” value is not above -4.2.

Take U7A G58C: the “polymerase ribozyme fitness (log ratio)” value is -3.68.

In the case of U7A A16C C35A A47U G50A C75A U90G C95U A121G G152U, the “polymerase ribozyme fitness (log ratio)” value was not above -4.2.

As for U7A A22C A28C A60C G92A G143C A147G, the “polymerase ribozyme fitness (log ratio)” value is not above -4.2.

U7C A19U G83C U127G: the “polymerase ribozyme fitness (log ratio)” value is not above -4.2.

Take U7G A23G G67U: the “polymerase ribozyme fitness (log ratio)” value was not above -4.2.

Regarding U7A A12G A28U A49C C75U G92A C116U, the “polymerase ribozyme fitness (log ratio)” value was not above -4.2.

For U7C G62A C63U A66C C93U, the “polymerase ribozyme fitness (log ratio)” value was not above -4.2.

For the variant U7G A19C A21G G80C G83U A122U G136A, the “polymerase ribozyme fitness (log ratio)” value was not above -4.2.

Turning to U7C A16U G92C C116G, the “polymerase ribozyme fitness (log ratio)” value was -3.77.

As to U7C A29U G50C A52U G83C G124C A138G, the “polymerase ribozyme fitness (log ratio)” value is not above -4.2.

On to U7C U13A C32G A91C, for which the “polymerase ribozyme fitness (log ratio)” value is not above -4.2.

As to U7A C10U G70C G84C A120C G141C, the “polymerase ribozyme fitness (log ratio)” value was not above -4.2.

For U7C C57A C85A, the “polymerase ribozyme fitness (log ratio)” value is not above -4.2.

Consider U7A C43U C85U C99U C132U, for which the “polymerase ribozyme fitness (log ratio)” value was not above -4.2.

With U7A A29G C76G C85G, the “polymerase ribozyme fitness (log ratio)” value was not above -4.2.

U7A G11C C87A G124U G141A U148G: the “polymerase ribozyme fitness (log ratio)” value was not above -4.2.

With U7C G25U A30G C72A U127C A137U, the “polymerase ribozyme fitness (log ratio)” value was not above -4.2.

In the case of U7C C8A A29C U56C U134A, the “polymerase ribozyme fitness (log ratio)” value is not above -4.2.

Take U7C A41U G58C C87G C132A: the “polymerase ribozyme fitness (log ratio)” value was not above -4.2.

Turning to U7A A19G G141C A150G, the “polymerase ribozyme fitness (log ratio)” value was not above -4.2.

As for U6G U139C, the “polymerase ribozyme fitness (log ratio)” value was -3.69.

For the variant U7C C54G C76U C79G G88C C108U G140C, the “polymerase ribozyme fitness (log ratio)” value is not above -4.2.
